The source of these data is publication PMC12345631.

Protein sequences, listed by entry. Tags and fused reporters are not part of them.
UniProt P38873: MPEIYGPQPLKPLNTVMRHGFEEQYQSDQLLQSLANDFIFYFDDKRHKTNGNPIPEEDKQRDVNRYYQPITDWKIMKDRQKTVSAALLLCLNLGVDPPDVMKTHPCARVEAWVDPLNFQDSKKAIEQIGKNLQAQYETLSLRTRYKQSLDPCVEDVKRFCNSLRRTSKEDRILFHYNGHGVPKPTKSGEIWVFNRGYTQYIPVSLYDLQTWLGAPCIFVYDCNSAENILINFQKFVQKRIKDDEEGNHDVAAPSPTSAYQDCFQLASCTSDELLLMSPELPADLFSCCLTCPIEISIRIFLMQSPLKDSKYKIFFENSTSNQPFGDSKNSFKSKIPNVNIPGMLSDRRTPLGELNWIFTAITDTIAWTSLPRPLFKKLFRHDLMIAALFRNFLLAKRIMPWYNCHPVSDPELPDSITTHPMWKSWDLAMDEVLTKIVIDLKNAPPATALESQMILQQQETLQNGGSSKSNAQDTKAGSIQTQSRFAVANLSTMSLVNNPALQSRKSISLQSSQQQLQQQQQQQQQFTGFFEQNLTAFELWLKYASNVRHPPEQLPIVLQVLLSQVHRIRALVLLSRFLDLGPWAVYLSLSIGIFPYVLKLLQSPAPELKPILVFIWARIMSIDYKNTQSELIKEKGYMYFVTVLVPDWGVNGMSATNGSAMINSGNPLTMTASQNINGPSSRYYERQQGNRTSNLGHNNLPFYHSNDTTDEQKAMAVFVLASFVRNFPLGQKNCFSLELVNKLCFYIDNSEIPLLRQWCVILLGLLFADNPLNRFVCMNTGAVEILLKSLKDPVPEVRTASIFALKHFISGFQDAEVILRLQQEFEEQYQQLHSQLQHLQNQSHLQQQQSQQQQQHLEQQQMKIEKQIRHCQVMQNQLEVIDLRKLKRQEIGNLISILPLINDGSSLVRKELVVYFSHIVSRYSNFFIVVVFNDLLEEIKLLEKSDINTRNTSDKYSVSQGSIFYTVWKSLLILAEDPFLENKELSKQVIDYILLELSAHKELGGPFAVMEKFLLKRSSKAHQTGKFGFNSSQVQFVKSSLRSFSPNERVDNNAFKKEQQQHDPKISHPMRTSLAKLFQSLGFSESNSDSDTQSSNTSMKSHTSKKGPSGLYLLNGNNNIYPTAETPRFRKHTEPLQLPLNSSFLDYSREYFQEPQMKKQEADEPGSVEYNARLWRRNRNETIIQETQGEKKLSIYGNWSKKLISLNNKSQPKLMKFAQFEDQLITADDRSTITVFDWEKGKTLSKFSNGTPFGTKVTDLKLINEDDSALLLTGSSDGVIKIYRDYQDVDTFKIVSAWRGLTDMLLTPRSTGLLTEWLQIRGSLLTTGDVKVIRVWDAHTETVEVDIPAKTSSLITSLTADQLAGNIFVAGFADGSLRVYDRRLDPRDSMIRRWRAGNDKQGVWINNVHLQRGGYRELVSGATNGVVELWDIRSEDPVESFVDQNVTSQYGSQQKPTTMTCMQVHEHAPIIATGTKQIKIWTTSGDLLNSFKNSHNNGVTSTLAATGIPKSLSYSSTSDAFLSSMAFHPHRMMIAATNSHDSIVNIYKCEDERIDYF

Read-outs that look alike come from different tables or passages of the source. No constants are given. Whether binding was seen depends on the method and setting. Binding seen in cells or lysates may run through a third protein. Some binding calls cover weakened binding; strength is not graded here. Sequences can lack the tags named with a protein.

Holding throughout (test): co-IP; anti-Flag (M2) on Dynabeads Protein G, 1–2 h at 4°C; lysis in 50 mM HEPES pH 7.5, 150 mM NaCl, 1 mM EDTA, NP-40; washes with 0.2% NP-40; blot for HA; cells in YPD, YPL, SD or SL medium; wild-type or mkt1∆ background; CEN.PK and S288C
Assay [1] has as its target T1, Pbp1-Flag (S. cerevisiae) (UniProt P53297).
T1 sequence: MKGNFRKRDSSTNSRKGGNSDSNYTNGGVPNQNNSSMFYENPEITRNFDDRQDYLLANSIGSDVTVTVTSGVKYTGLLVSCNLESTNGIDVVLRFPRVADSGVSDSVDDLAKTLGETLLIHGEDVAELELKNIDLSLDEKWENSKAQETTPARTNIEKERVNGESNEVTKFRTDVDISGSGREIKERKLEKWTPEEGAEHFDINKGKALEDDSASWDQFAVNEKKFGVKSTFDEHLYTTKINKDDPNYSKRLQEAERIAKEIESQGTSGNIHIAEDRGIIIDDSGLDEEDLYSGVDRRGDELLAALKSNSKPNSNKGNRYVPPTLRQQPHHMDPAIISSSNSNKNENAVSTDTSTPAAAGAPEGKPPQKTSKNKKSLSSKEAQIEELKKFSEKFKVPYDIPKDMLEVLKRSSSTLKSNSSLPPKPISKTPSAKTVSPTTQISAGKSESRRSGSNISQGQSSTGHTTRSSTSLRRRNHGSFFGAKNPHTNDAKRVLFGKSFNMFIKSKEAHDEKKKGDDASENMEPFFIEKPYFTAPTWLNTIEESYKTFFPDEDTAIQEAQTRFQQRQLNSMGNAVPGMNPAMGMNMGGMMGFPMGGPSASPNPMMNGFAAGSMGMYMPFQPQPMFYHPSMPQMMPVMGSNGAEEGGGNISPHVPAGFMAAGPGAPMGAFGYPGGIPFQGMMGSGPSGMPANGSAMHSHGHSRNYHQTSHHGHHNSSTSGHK

Assay [2] has as its target T1, Pbp1-Flag (S. cerevisiae). The source holds these as a separate data set.
Assay [3] has as its target T2, Mkt1-D30/K453 (Flag-tagged) (S. cerevisiae) (UniProt P40850).
T2 sequence: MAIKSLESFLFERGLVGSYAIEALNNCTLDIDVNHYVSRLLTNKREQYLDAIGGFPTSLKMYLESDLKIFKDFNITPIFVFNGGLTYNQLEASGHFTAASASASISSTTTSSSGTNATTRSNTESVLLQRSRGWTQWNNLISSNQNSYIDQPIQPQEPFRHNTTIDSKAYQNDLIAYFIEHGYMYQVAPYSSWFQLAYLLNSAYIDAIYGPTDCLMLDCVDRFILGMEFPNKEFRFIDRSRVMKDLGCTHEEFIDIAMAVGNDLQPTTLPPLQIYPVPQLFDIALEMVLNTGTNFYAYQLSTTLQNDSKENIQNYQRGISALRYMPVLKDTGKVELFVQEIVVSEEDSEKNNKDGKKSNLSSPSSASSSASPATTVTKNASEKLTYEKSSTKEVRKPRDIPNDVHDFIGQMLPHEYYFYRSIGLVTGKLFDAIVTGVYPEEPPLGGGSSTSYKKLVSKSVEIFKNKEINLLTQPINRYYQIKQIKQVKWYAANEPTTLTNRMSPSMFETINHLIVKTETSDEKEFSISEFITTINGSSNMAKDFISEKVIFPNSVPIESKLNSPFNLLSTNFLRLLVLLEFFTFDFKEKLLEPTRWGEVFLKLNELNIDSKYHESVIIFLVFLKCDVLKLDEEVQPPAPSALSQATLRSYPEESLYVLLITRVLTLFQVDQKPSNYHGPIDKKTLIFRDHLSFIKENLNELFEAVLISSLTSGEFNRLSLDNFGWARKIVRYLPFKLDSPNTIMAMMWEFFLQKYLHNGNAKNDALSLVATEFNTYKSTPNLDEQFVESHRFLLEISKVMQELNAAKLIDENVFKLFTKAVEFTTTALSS

For assay [4], the target named is T3, Mkt1-D30/R453 (Flag-tagged) (S. cerevisiae) (UniProt P40850).
T3 sequence: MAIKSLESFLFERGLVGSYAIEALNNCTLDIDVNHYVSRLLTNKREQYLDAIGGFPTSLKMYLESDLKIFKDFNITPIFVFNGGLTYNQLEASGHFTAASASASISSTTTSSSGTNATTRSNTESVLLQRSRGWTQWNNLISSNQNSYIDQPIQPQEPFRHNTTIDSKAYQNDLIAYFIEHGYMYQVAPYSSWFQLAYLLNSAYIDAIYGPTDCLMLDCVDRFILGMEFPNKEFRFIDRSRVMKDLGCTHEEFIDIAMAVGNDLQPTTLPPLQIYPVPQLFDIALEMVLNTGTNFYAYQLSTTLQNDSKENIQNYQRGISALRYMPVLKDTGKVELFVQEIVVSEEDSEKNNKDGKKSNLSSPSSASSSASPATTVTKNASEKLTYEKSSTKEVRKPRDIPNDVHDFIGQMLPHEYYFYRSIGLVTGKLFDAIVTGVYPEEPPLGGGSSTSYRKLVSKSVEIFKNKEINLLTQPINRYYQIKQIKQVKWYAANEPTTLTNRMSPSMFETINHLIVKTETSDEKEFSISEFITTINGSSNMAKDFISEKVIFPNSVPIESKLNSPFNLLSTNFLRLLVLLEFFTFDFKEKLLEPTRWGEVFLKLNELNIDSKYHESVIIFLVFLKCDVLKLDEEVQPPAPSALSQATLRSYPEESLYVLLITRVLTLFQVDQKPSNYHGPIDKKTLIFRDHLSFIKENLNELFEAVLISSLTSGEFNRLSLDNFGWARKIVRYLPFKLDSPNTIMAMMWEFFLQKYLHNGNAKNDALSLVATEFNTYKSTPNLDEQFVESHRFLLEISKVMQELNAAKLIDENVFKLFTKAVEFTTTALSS

As to Kog1-HA (from UniProt P38873 1-1557), in assay [1], the binding entry is on record as “binds”.

B1: Puf3-HA (protein, UniProt Q07807 1-879)
chain: MEMNMDMDMDMELASIVSSLSALSHSNNNGGQAAAAGIVNGGAAGSQQIGGFRRSSFTTANEVDSEILLLHGSSESSPIFKKTALSVGTAPPFSTNSKKFFGNGGNYYQYRSTDTASLSSASYNNYHTHHTAANLGKNNKVNHLLGQYSASIAGPVYYNGNDNNNSGGEGFFEKFGKSLIDGTRELESQDRPDAVNTQSQFISKSVSNASLDTQNTFEQNVESDKNFNKLNRNTTNSGSLYHSSSNSGSSASLESENAHYPKRNIWNVANTPVFRPSNNPAAVGATNVALPNQQDGPANNNFPPYMNGFPPNQFHQGPHYQNFPNYLIGSPSNFISQMISVQIPANEDTEDSNGKKKKKANRPSSVSSPSSPPNNSPFPFAYPNPMMFMPPPPLSAPQQQQQQQQQQQQEDQQQQQQQENPYIYYPTPNPIPVKMPKDEKTFKKRNNKNHPANNSNNANKQANPYLENSIPTKNTSKKNASSKSNESTANNHKSHSHSHPHSQSLQQQQQTYHRSPLLEQLRNSSSDKNSNSNMSLKDIFGHSLEFCKDQHGSRFIQRELATSPASEKEVIFNEIRDDAIELSNDVFGNYVIQKFFEFGSKIQKNTLVDQFKGNMKQLSLQMYACRVIQKALEYIDSNQRIELVLELSDSVLQMIKDQNGNHVIQKAIETIPIEKLPFILSSLTGHIYHLSTHSYGCRVIQRLLEFGSSEDQESILNELKDFIPYLIQDQYGNYVIQYVLQQDQFTNKEMVDIKQEIIETVANNVVEYSKHKFASNVVEKSILYGSKNQKDLIISKILPRDKNHALNLEDDSPMILMIKDQFANYVIQKLVNVSEGEGKKLIVIAIRAYLDKLNKSNSLGNRHLASVEKLAALVENAEV
For the molecule B1, the binding result in assay [2] is “binds”.

B2: Pbp1-HA (protein, UniProt P53297 1-722)
chain: MKGNFRKRDSSTNSRKGGNSDSNYTNGGVPNQNNSSMFYENPEITRNFDDRQDYLLANSIGSDVTVTVTSGVKYTGLLVSCNLESTNGIDVVLRFPRVADSGVSDSVDDLAKTLGETLLIHGEDVAELELKNIDLSLDEKWENSKAQETTPARTNIEKERVNGESNEVTKFRTDVDISGSGREIKERKLEKWTPEEGAEHFDINKGKALEDDSASWDQFAVNEKKFGVKSTFDEHLYTTKINKDDPNYSKRLQEAERIAKEIESQGTSGNIHIAEDRGIIIDDSGLDEEDLYSGVDRRGDELLAALKSNSKPNSNKGNRYVPPTLRQQPHHMDPAIISSSNSNKNENAVSTDTSTPAAAGAPEGKPPQKTSKNKKSLSSKEAQIEELKKFSEKFKVPYDIPKDMLEVLKRSSSTLKSNSSLPPKPISKTPSAKTVSPTTQISAGKSESRRSGSNISQGQSSTGHTTRSSTSLRRRNHGSFFGAKNPHTNDAKRVLFGKSFNMFIKSKEAHDEKKKGDDASENMEPFFIEKPYFTAPTWLNTIEESYKTFFPDEDTAIQEAQTRFQQRQLNSMGNAVPGMNPAMGMNMGGMMGFPMGGPSASPNPMMNGFAAGSMGMYMPFQPQPMFYHPSMPQMMPVMGSNGAEEGGGNISPHVPAGFMAAGPGAPMGAFGYPGGIPFQGMMGSGPSGMPANGSAMHSHGHSRNYHQTSHHGHHNSSTSGHK
Regarding B2, the binding entry in assay [3] and in assay [4] was “binds weakly” each time.
